# According to the supplement of paper PMC3724861:
# Some of the results follow.
# Test system: T1, Caupolican (Caup) homeodomain DNA-binding domain
# T1 sequence: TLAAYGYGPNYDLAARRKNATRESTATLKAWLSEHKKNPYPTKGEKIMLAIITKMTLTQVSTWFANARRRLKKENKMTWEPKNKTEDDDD
# Test: PBM E-score (8-mer, recovered from the published 9-mer minima) (E-score (dimensionless, -0.5 to 0.5)); Drosophila protein; higher = stronger relative binding preference, active = 0.31 or more
# Outline: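 An enrichment score, with higher meaning stronger, expresses relative binding preference for each short DNA word. The protein used was Caup's homeodomain DNA-binding domain (residues 214-303), produced by in vitro transcription and translation and tested at 100 nM on custom-designed protein binding microarrays. The 8-mer values were recovered from published 9-mer scores, each equal to the lower of its two constituent 8-mer scores.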
row,Sequence,PBM E-score
1,TGACCCCA,inactive: -0.138
2,GGGGGGCA,inactive: -0.344
3,GGCCGTTA,inactive: -0.0889
4,CAGGTAGA,inactive: 0.00516
5,CAGGAAGG,inactive: -0.2
6,CTTCCATA,inactive: -0.00772
7,AGATGATG,inactive: 0.0748
8,ACCCCAGT,≥ -0.124
9,GTCGTTTA,inactive: 0.148
10,ACTTCTTA,≥ 0.111
11,TACTGAGA,inactive: -0.0179
12,GTGCAGGA,inactive: -0.00228
13,AAGTTCCG,inactive: 0.00675
14,AAACGGGA,inactive: -0.0164
15,AAGCTCCT,inactive: -0.0876
16,AAAAATCG,inactive: -0.0795
17,CAGCTCTA,inactive: -0.0882
18,CTATGATA,inactive: 0.0827
19,GCCCCGAA,inactive: -0.185
20,TGCCGGCA,≥ -0.134
21,CATGGGGG,inactive: -0.157
22,GCATCCCA,inactive: -0.136
23,GGTTGGTA,inactive: 0.0654
24,AAAGCAGG,inactive: -0.0736

row,Sequence,PBM E-score
1,AGCATAGC,inactive: 0.0549
2,GGTCTCTA,inactive: -0.125
3,CGCTACCG,inactive: -0.0887
4,AGCGATCA,inactive: -0.0526
5,GGAGTAAC,inactive: -0.087
6,CAGCGCGA,inactive: -0.0786
7,GCGTGTGA,inactive: 0.0667
8,AACGACCT,inactive: -0.0586
9,CATTGCGG,inactive: -0.0397
10,CTGTGTGA,inactive: 0.0354
11,ATCGCAAG,inactive: -0.0386
12,CAGGGGCG,inactive: -0.11
13,ACCCGTAG,inactive: -0.147
14,ACAACCTC,inactive: 0.169
15,CGCTTATC,inactive: 0.00864
16,CCAGTAAC,inactive: -0.0237
17,AACGCCTC,inactive: -0.12
18,CTAAAGTA,inactive: -0.0211
19,GGTGTACA,active: 0.327
20,CTTCCCCA,inactive: -0.203
21,AGAATGGA,inactive: 0.0301
22,CCAATTTA,inactive: 0.143
23,AGCCTGCA,inactive: -0.0518
24,CTATATAG,inactive: 0.0101

row,Sequence,PBM E-score
1,ATTGCCGA,≥ 0.0403
2,GTTGGATA,inactive: 0.0774
3,ATAGGGTG,inactive: -0.0464
4,ATTATCAA,inactive: 0.159
5,CCGCAACG,inactive: -0.123
6,AACTGATC,inactive: 0.0687
7,CCATCCAC,inactive: -0.00804
8,TCATATCA,inactive: 0.14
9,ATCGCTCC,inactive: -0.136
10,TCAAGAGA,inactive: 0.0534
11,ACTCTTGG,inactive: -0.044
12,CTCCGACA,inactive: 0.119
13,AGGCTCTA,inactive: -0.12
14,CCCATCGG,inactive: -0.172
15,CAGCCCGG,inactive: -0.261
16,GCGCGTAC,inactive: -0.0837
17,CATAAGGA,inactive: 0.00552
18,AGTCATCC,inactive: -0.0516
19,CCCGGAAA,inactive: -0.0542
20,ACTAGCGC,inactive: -0.134
21,AAAGAGAG,inactive: -0.0837
22,CAGGATCG,inactive: -0.0491
23,ACACCGAG,inactive: 0.108
24,CCTGGAAG,inactive: -0.15

row,Sequence,PBM E-score
1,CTGCCGAA,inactive: -0.181
2,AATGGAAG,inactive: -0.0577
3,ACTGGCGA,≥ -0.0646
4,CACTACCC,inactive: -0.0519
5,ACGACATC,inactive: 0.26
6,CAATTTCG,inactive: 0.0243
7,ACTAATCA,≥ 0.205
8,CGGGAGAA,inactive: -0.0618
9,TACGGGAA,inactive: -0.0264
10,AGGAGTTA,inactive: 0.0649
11,ACCACCCG,inactive: -0.145
12,AACGTATG,inactive: 0.138
13,CAAGAGGG,inactive: -0.0577
14,ATGGATGA,inactive: 0.0411
15,ATCCGTTG,inactive: 0.105
16,TACACGAA,active: 0.371
17,GACCACCC,inactive: -0.177
18,CCTCATGA,inactive: -0.0319
19,TCACATCA,inactive: 0.091
20,ACCTAGTC,inactive: -0.0579
21,AGGGCTAT,inactive: -0.117
22,GACTATGC,inactive: 0.121
23,ATACGATA,inactive: 0.186
24,GCCTGGCC,inactive: -0.292

row,Sequence,PBM E-score
1,CCGGAGCC,inactive: -0.227
2,ACCTTGAA,inactive: 0.0522
3,CCTATCCA,inactive: -0.0354
4,ACGTAAGT,inactive: 0.0363
5,AAGCCTTG,inactive: -0.0495
6,AGGGATGC,inactive: -0.127
7,ACGAACTG,inactive: 0.05
8,AAATTACG,inactive: 0.0367
9,ATTTGTCG,inactive: 0.169
10,ACTATGAC,inactive: 0.113
11,AGGCACAT,inactive: 0.00079
12,CACACACA,inactive: 0.0556
13,AGAAGAAC,inactive: 0.0735
14,CGCATGAA,inactive: -0.0812
15,AATGTATC,active: 0.314
16,ATGGCAAA,inactive: -0.0401
17,AACATGAG,active: 0.351
18,CTACACGA,inactive: 0.295
19,AAACATCC,inactive: 0.258
20,CTAACTAG,inactive: 0.0978
21,CCCATCCC,inactive: -0.212
22,CAGCAGAA,inactive: -0.00767
23,GCGTCGAA,inactive: -0.0998
24,CCTGCGAA,inactive: -0.0125

row,Sequence,PBM E-score
1,AATGTCTG,inactive: 0.142
2,AATCGAGG,inactive: -0.117
3,CGCGATGA,inactive: 0.0185
4,CTCCACAG,inactive: -0.16
5,TCCCGTCA,inactive: -0.0662
6,TCATGACA,active: 0.313
7,CCTGAAGA,inactive: -0.118
8,GAACGACC,inactive: -0.0823
9,ATTAATCA,≥ 0.198
10,AGCAGGGA,inactive: -0.105
11,AAAACCGA,inactive: -0.0262
12,ATGTACCC,inactive: 0.263
13,ACAACCAG,inactive: 0.249
14,TAAAACGA,inactive: 0.0306
15,CAATGTAA,active: 0.312
16,CAAGTGAG,inactive: 0.0208
17,AATAGAGT,inactive: -0.0101
18,ACATTCCA,≥ 0.186
19,TGCTTCAA,inactive: 0.047
20,GGCTGCAA,inactive: -0.119
21,ACCTGCCA,≥ -0.0741
22,CCACAGAG,inactive: -0.0103
23,TCTATGAA,inactive: 0.047
24,CCAAAACA,inactive: 0.155
